Experimental data taken from PubChem BioAssay AID720709 (National Center for Advancing Translational Sciences (NCATS), 2013).
Among all 360,000 compounds or so, about 520 (0.14%) were called active. The inconclusive results got no clear call from the source; some entries with a clear call stand among them for comparison. Calls come from the whole dose curve; as a rule, active = well fitted inhibition curve with a large enough effect; inconclusive = small, poorly fitted or top-dose-only effect; inactive = no such curve, though single readings can be large or run the other way. Potencies beside an inconclusive call are fits to weak or partial responses and may not hold up.

biological target: Rap guanine nucleotide exchange factor 3 (Homo sapiens) (UniProt O95398); test: qHTS for Antagonist of cAMP-regulated guanine nucleotide exchange factor 3 (EPAC1): primary screen; conditions: EPAC1 GEF assay, Rap1b-BODIPY-GDP exchange fluorescence; activity change, negative = inhibition: at 115 µM (top of the series); note: nearly all actives have a fitted effect of over 50% in size;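 for activity change, negative = inhibition: plate controls were vehicle for no effect and positive control for full effect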
Potency is the fitted concentration of half-maximal effect; tags give direction and shape of the fitted curve.

UniProt O95398, sequence (O95398 whole entry, looked up): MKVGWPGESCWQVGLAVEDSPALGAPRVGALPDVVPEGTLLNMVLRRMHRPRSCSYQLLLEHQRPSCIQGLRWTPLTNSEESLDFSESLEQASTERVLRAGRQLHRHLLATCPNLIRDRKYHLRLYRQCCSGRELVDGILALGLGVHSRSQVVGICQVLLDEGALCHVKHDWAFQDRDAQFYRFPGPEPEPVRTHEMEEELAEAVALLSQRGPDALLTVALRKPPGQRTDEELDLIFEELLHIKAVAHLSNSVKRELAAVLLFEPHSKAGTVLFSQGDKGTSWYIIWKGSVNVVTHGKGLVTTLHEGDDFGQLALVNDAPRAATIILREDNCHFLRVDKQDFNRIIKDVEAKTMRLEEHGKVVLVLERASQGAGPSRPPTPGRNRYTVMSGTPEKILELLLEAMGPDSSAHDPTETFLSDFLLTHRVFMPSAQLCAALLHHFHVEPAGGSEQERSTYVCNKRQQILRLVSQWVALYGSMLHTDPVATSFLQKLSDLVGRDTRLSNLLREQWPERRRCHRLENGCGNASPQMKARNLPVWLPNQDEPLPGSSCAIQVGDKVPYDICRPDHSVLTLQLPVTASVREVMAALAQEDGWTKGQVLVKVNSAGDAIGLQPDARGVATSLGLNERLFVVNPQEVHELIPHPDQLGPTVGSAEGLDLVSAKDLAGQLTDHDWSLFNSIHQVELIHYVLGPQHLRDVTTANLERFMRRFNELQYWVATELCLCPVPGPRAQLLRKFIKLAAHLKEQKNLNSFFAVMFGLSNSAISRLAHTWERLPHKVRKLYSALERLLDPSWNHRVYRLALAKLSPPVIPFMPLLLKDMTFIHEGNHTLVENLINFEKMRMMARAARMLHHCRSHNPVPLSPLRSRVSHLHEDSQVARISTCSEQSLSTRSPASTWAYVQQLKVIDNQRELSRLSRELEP

Potency, inconclusive:
Cn1nccc1C(=O)N1CCCC(C(=O)c2cccc3ccccc23)C1 (stereo unspecified) 6.31 µM [inhibitor, partial curve, poor fit]
Cc1cccc(NS(=O)(=O)c2ccc(NC(=O)CN(c3cc([N+](=O)[O-])ccc3C)S(C)(=O)=O)cc2)c1 17.8 µM [inhibitor, partial curve]
O=C1CCN(CCc2ccccc2)CCN1[C@H](CO)Cc1ccccc1 50.1 µM [inhibitor, partial curve]
CC(=O)N1CCc2c(sc(NC(=O)c3ccc([N+](=O)[O-])o3)c2C(N)=O)C1 100 µM [inhibitor, partial curve]
CCOc1cc(CO)cc(Br)c1OCC(N)=O 39.8 µM [inhibitor, single point]
CCNc1sc(C(=O)c2cccs2)c(N)c1C#N 20 µM [inhibitor, partial curve]
COc1ccc(C(=O)OCCCc2cc3ccccc3c(=O)o2)cc1 100 µM [inhibitor, single point]
O=C(CN1C(=O)COc2ccc(S(=O)(=O)N3CCCCCC3)cc21)NCc1ccc(F)cc1 79.4 µM [inhibitor, partial curve]
COc1ccc(C(CCNC(C)c2ccccc2)c2ccc(F)cc2)cc1 (stereo unspecified) 112 µM [inhibitor, partial curve, poor fit]
CC(C)(Oc1ccc(Cl)cc1)C(=O)N(Cc1ccccc1)c1ccccn1 100 µM [inhibitor, single point]
COC(=O)C1=C(C)OC(N)=C(C#N)C1c1c(C)nn(-c2ccccc2)c1Cl (stereo unspecified) 100 µM [inhibitor, single point]
Brc1ccc(Nc2ncnc3[nH]ncc23)cc1 56.2 µM [inhibitor, partial curve, poor fit]
CCCC1=C(C(=O)OCC)C(c2ccco2)C(C#N)=C(N)O1 (stereo unspecified) 39.8 µM [inhibitor, single point]
C[C@@H]1CN([C@H](C)CO)C(=O)CCCn2cc(nn2)CO[C@H]1CN(C)S(=O)(=O)c1ccc(-n2cccn2)cc1 89.1 µM [inhibitor, single point]
N#Cc1c(-c2cccs2)nc(SCC(=O)c2ccc(Br)cc2)[nH]c1=O 50.1 µM [inhibitor, partial curve]
CCC1(c2ccccc2)NC(=O)N(CC(=O)NC2CCCC2)C1=O (stereo unspecified) 89.1 µM [inhibitor, single point]
COc1ccccc1C=C(C(=O)c1ccccc1)c1ccccc1 100 µM [inhibitor, partial curve]
COC(=O)C1=CC(C(=O)c2cccs2)=NN(c2ccc(OC)cc2)C1C(=O)OC (stereo unspecified) 39.8 µM [inhibitor, single point]
Cc1nc(N2CCN(c3ccccn3)CC2)c2c(C)c(C(=O)Nc3ccc(F)c(Cl)c3)sc2n1 112 µM [inhibitor, partial curve, poor fit]
CCN1C[C@@H]2[C@@H]3C(=O)N(Cc4ccccc4)C(=O)[C@@H]3[C@](CC)(C(=O)OC)N2C1=NC1CCCCC1 89.1 µM [inhibitor, single point]
Cc1cc(C)c(C)c(OCCn2ccnc2)c1 100 µM [inhibitor, partial curve, poor fit]
COc1cccc(/C=N\NC(=O)c2ccc(Cn3cc(Br)c([N+](=O)[O-])n3)o2)c1O 79.4 µM [inhibitor, partial curve, poor fit]
COc1ccc(CC(=O)Nc2cccc3c2CCCC3)cc1 31.6 µM [inhibitor, full curve, poor fit]
O=C(O)c1cccc2c1C(=O)c1ccc(-c3ccc(F)cc3OCc3ccccc3)cc1S2(=O)=O 50.1 µM [inhibitor, partial curve]
COCC(=O)NNC(=S)Nc1cccc(C)c1C 39.8 µM [inhibitor, partial curve]
Cc1ccccc1C(=O)Nc1ccccc1-n1cccc1 25.1 µM [inhibitor, partial curve]
CC(C)c1ccc(NC(=O)c2cc(S(=O)(=O)NCC3COc4ccccc4O3)ccc2F)cc1 (stereo unspecified) 28.2 µM [inhibitor, full curve, poor fit]
Cc1cccc(C)c1NC(=O)C(C1CC1)n1c(=O)c(-c2ccco2)nc2ccccc21 (stereo unspecified) 89.1 µM [inhibitor, single point]
Cc1ccc(OCC(=O)Nc2ccc(N(C)C)cc2)cc1 3.55 µM [inhibitor, full curve, poor fit]
COc1cc2c(cc1NC(=O)COC(=O)CNS(=O)(=O)c1ccc(C)cc1)oc1ccccc12 79.4 µM [inhibitor, single point]
Cc1ccc(S(=O)(=O)N2CCN(C(=O)COC(=O)COc3cccc(C(F)(F)F)c3)CC2)c(C)c1 5.62 µM [inhibitor, full curve, poor fit]
CC(=O)Oc1cc(C(=O)OCC(=O)NC23CC4CC(CC(C4)C2)C3)cc(OC(C)=O)c1OC(C)=O 20 µM [inhibitor, full curve]
CCOc1cccc(=O)c2c(C)n(-c3ccc(C(=O)O)cc3)c(C)c12 100 µM [inhibitor, single point]
CN(CCO)c1c2c(nc3cc(-c4cccc(F)c4)nn13)CCCC2 89.1 µM [inhibitor, single point]
Cc1ccc(C)n1-c1ccc(C(=O)/C=C/N(C)C)cc1 79.4 µM [inhibitor, single point]
COc1ccc(C2(O)CCN(C(=O)c3c(F)cccc3F)CC2)cc1 20 µM [inhibitor, single point]
C/C(=N\NC(=O)c1ccc([N+](=O)[O-])cc1)c1cccc([N+](=O)[O-])c1 89.1 µM [inhibitor, single point]
Cc1nn(-c2ccccc2)c(Cl)c1CN(C(=O)CCl)c1ccc(Cl)cc1 79.4 µM [inhibitor, single point]
COc1ccc(N2C(=O)CC(N3CCN(S(=O)(=O)c4cc(C)ccc4C)CC3)C2=O)cc1 (stereo unspecified) 17.8 µM [inhibitor, single point]
CC(C)(C)OC(=O)NCCCC[C@H](NC(=O)c1nc[nH]c1C(=O)NC(c1ccccc1)c1ccccc1)C(=O)OC(C)(C)C 50.1 µM [inhibitor, full curve, poor fit]
CCOC(=O)c1nc(C)sc1-c1ccnn1S(=O)(=O)c1ccc(C)cc1 14.1 µM [inhibitor, full curve, poor fit]
Cc1cc(Nc2cc(Cl)nc(Sc3ccc(NC(=O)C4CC4)cc3)n2)n[nH]1 100 µM [inhibitor, single point]
Cc1cc(=O)oc2cc(OC(=O)C3CCN(C(=O)c4ccc(F)cc4)CC3)ccc12 100 µM [inhibitor, single point]
O=C(NCc1ccc(S(=O)(=O)Nc2ccccc2Cl)s1)c1ccccc1 100 µM [inhibitor, partial curve]
COc1ccc(-n2c(Cc3cccn3C)nnc2SCC(=O)NC2CCCC2)cc1 89.1 µM [inhibitor, partial curve]

Potency, active:
Nn1cnnc1N/N=C/c1ccc(Cl)c([N+](=O)[O-])c1 15.8 µM

Activity change, negative = inhibition, inactive:
C[C@H](NC(N)=O)C(=O)N1CCN(S(=O)(=O)c2ccc3ccccc3c2)CC1 -8.72%
Cc1cc(C)n2c(=O)c3ccc(Cl)cc3nc2c1C#N -5.04%
O=C(NC(=S)Nc1ccc(S(=O)(=O)NC2CCCCC2)cc1)c1cccs1 -5.76%
CCOCCN1CCN(C(=O)CN2CCCC2=O)CC1 1.72%
CC1CCN(c2ccc3c(c2)S(=O)(=O)c2cccc(C(=O)NC4CCCCC4)c2C3=O)CC1 5.25%
Cc1ccc(Cl)cc1NC(=O)CSC(N)=O 9.93%
O=C(CN1CCCC1)N1c2ccccc2C=Cc2ccccc21 -0.31%
O=C(OCC(=O)N(CCc1ccccc1)Cc1ccccc1)c1cccc(S(=O)(=O)N2CCOCC2)c1 1.95%
CCOc1ccc(/C=C(\C#N)C(=O)Nc2cccnc2)cc1 10.1%
Cc1nc2ccc(Cl)cn2c1[N+](=O)[O-] 13.3%
Cc1ncc(CO)c2c1OC(C)(C)OC2 -1.54%
O=C(COC(=O)C1=COCCO1)Nc1ccc(F)c(F)c1 4.61%
Cc1ccc(-c2nc3ccccc3nc2-c2ccccc2)cc1 -39.6%
CCOC(=O)c1ccc(-n2c(CN3CCC(C(N)=O)CC3)nc3ccc([N+](=O)[O-])cc3c2=O)cc1 -18.1%
CC1=C(C(=O)N2CCOCC2)CC(CC(=O)NC2CC2)C(=O)N1Cc1ccc(F)cc1 (stereo unspecified) 5.85%
C/C(=N/NS(=O)(=O)c1cccc([N+](=O)[O-])c1)c1ccncc1 6.38%
O=C1C(NS(=O)(=O)c2cccs2)=C(N2CCN(c3ccccc3)CC2)C(=O)c2ccccc21 5.81%
COC(=O)c1cc(-c2ccc(Br)cc2)on1 0.071%
CC(C)(C)OC(=O)C[C@H]1C/C=C\C[C@H](CC(=O)N(CCO)Cc2ccccc2)C(=O)N[C@H](C(C)(C)C)COC1=O 7.24%

Activity change, negative = inhibition, inconclusive:
O=C(/C=C/c1ccco1)Nc1cccc(-c2nc3ccccc3[nH]2)c1 -19.5% [inhibitor]
